Test results from PubChem BioAssay AID720537 (National Center for Advancing Translational Sciences (NCATS), 2013).
In all, about 1,600 compounds went through this assay and about 55 (3%) were called active. Inconclusive means that the source gave no clear call. Such entries were picked first, then a sample of the others. The call rests on the fitted dose curve; in most records, active means well fitted inhibition curve with a large enough effect; inconclusive means small, poorly fitted or top-dose-only effect; inactive means no such curve, though single readings can be large or run the other way. Potencies of inconclusive entries are left out as doubtful fits.

Assay: qHTS for Inhibitors of TGF-b: Hit Validation in HepG2 Cells using COP promoter; further: nearly all actives have a fitted effect of over 70% in size;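 on activity, negative = inhibition: 0% = TGF-beta stimulated DMSO wells and -100% = unstimulated cell wells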
Conditions: HepG2 COP-GFP TGF-b reporter, GFP fluorescence, 18 h, cells stimulated by added recombinant TGF-beta; activity, negative = inhibition: at 46.1 µM (top of the series)
Procedure, shortened: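 A GFP reporter under the COP promoter in HepG2 cells is stimulated with TGF-beta (500 pg/mL final, 18 h, 37 °C) in the presence of titrated compound. Potency comes from fitted concentration-response curves.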
Potency means the concentration at half of the fitted maximal effect; tags describe the fitted curve by direction and shape.

Row | SMILES | Potency | activity, negative = inhibition
1 | Cc1ccc(CNc2nc(NCc3ccccc3)nc3ccsc23)c(C)c1 | inconclusive [inhibitor, single point] | –
2 | O=[N+]([O-])c1c(NCCCO)cc(Sc2nc3ccccc3s2)c2nonc12 | active: 16.4 µM | –
3 | CC(=O)N(C1=C(Cl)C(=O)c2ccccc2C1=O)C1CCCCC1 | active: 10.3 µM | –
4 | COc1ccc(C(=O)C(CN2CCOCC2)c2ccccc2)cc1F (centres undefined) | – | inactive: 17.1%
5 | CN(C(=O)/C=C/c1ccc([N+](=O)[O-])s1)c1ccccc1 | inconclusive [inhibitor, single point] | –
6 | COc1cccc(CNc2nc3cc(-c4ccsc4)sc3c(=O)n2C)c1OC | – | inactive: 19.9%
7 | CCN(C[C@H]1N[C@@](Cc2ccccc2)(C(=O)OC)[C@H]2C(=O)N(Cc3ccccc3)C(=O)[C@@H]12)C(=O)Nc1ccc(Cl)cc1 | – | inactive: 25.4%
8 | Cc1ccccc1OCC(O)CNC1CCC(NCC(O)COc2ccccc2C)CC1 (centres undefined) | inconclusive [inhibitor, single point] | –
9 | O=C(Nc1ccc2nc3n(c(=O)c2c1)CCCCC3)c1c(F)ccc([N+](=O)[O-])c1F | active: 8.2 µM | –
10 | Cc1ccc(-c2ccc(CN3C(C(C)C)C(=O)N(Cc4cn(CCC5OCCO5)nn4)CCS3(=O)=O)cc2)c(C)c1 (centres undefined) | – | inactive: -21%
11 | Cc1ccccc1C(=O)N1CCN(c2ccc(NC(=O)c3ccc([N+](=O)[O-])o3)cc2)CC1 | inconclusive [inhibitor, single point] | –
12 | CCOC(=O)N=Nc1c2ccccc2c2nc3no[nH]c3nc12 | active: 0.731 µM | –
13 | Cc1ccc(CNc2ccc(O)cc2)cc1 | inconclusive [inhibitor, single point] | –
14 | O=C1C(F)=CC(COC(c2ccccc2)(c2ccccc2)c2ccccc2)OC1n1cc(F)c(=O)[nH]c1=O (centres undefined) | inconclusive [inhibitor, single point] | –
15 | O=C(C1CCC(CNS(=O)(=O)c2cccc3nsnc23)CC1)N1CC=C(c2ccccc2)CC1 (centres undefined) | – | inactive: 11.6%
16 | CC(=O)Nc1ccc(NC2=C(Cl)C(=O)c3ccccc3C2=O)cc1 | inconclusive [inhibitor, single point] | –
17 | COc1ccc(C(CCNCc2ccc(F)cc2)c2ccc(F)cc2)cc1 (centres undefined) | inconclusive [inhibitor, single point] | –
18 | O=C(NCc1ccccc1)c1nc(S(=O)(=O)Cc2ccccc2)ncc1Cl | active: 29.1 µM | –
19 | Cc1nn(-c2ccc(F)cc2)c(C)c1NS(=O)(=O)c1ccc2ccccc2c1 | – | inactive: 20%
20 | COc1ccc(-c2cc(C(=O)N(C)CC(=O)Nc3cccc(F)c3)c3ccccc3n2)cc1 | – | inactive: 82.1%
21 | Cc1cc(N2CCN(C)CC2)ccc1NC(=O)c1c2c(nc3ccccc13)CCN(Cc1ccccc1)C2 | active: 11.6 µM | –
22 | CS(=O)(=O)N1CCN(c2ccc(NC(=O)c3ccc([N+](=O)[O-])o3)cc2)CC1 | – | inactive: -29.5%

Row | SMILES | Potency | activity, negative = inhibition
23 | O=C(CCN1CCOCC1)c1ccc2c(c1)OCCO2 | inconclusive [inhibitor, single point] | –
24 | COc1ccccc1N1CCN(C(=O)c2ccc(-c3ccc(Cl)cc3)o2)CC1 | – | inactive: 52.8%
25 | C(=C\c1ccccc1)/CN1CCN(C(c2nnnn2C2CCCC2)C2CC2)CC1 (centres undefined) | – | inactive: 11.6%
26 | O=[N+]([O-])c1ccc(N2CCN(Cc3ccccc3)CC2)c2c1no[n+]2[O-] | inconclusive [inhibitor, single point] | –
27 | COc1ccc(C(NC(=O)C2CCN(CCOc3ccc(Cl)cc3Cl)CC2)c2cccs2)cc1 (centres undefined) | inconclusive [inhibitor, single point] | –
28 | O=C(NC1CCCCC1)C(c1cccnc1)N(C(=O)CCl)c1cccc(Cl)c1 (centres undefined) | inconclusive [inhibitor, single point] | –
29 | COC(=O)N/N=C/c1cn(CCOc2ccccc2)c2ccccc12 | – | inactive: 19.2%
30 | COc1cc(CN2CCc3ccccc3C2)ccc1O | – | inactive: -26.5%
31 | O=C(OCc1ccccc1)N(CCCCN(CCCNCc1ccccc1)C(=O)OCc1ccccc1)CCCNCc1ccccc1 | inconclusive [inhibitor, single point] | –
32 | Cc1nnc(SC(=O)N2c3ccccc3Sc3ccccc32)s1 | inconclusive [inhibitor, single point] | –
33 | O=C(O)c1ccc(NC2=C/C(=N/S(=O)(=O)c3ccccc3)c3ccccc3C2=O)cc1 | inconclusive [inhibitor, single point] | –
34 | COc1ccc(CNC(=O)c2nc(S(=O)(=O)Cc3ccccc3)ncc2Cl)cc1 | inconclusive [inhibitor, single point] | –
35 | CCOC(=O)c1ccc(NC(=O)c2nc(S(=O)(=O)Cc3ccccc3)ncc2Cl)cc1 | active: 13 µM | –
36 | Cc1cccc(/C=C/C(=O)c2ccc([N+](=O)[O-])o2)c1 | inconclusive [inhibitor, single point] | –
37 | O=C(NCC1CC1)c1ccc(Nc2nc3ccc(Br)cc3[nH]2)cc1 | – | inactive: 52.2%
38 | COC(=O)c1ccccc1NC1=C/C(=N\S(=O)(=O)c2cccs2)c2ccccc2C1=O | active: 16.4 µM | –
39 | COc1ccc(/C=C2/CCCC(CN(C)C)C2=O)cc1 (centres undefined) | inconclusive [inhibitor, single point] | –
40 | O=C(c1ccc(Cl)cc1)C(CN1CCCC1)c1ccccc1 (centres undefined) | inconclusive [inhibitor, single point] | –
41 | O=C(NCc1ccc2c(c1)OCO2)c1nc(S(=O)(=O)Cc2ccccc2)ncc1Cl | active: 23.1 µM | –
42 | CC(=O)N1CCc2c(sc(NC(=O)c3ccc([N+](=O)[O-])o3)c2C(N)=O)C1 | inconclusive [inhibitor, single point] | –
43 | Brc1cc(Br)c2ncnc(N3CCCCC3)c2c1 | – | inactive: 42.1%
44 | O=S(=O)(CCOc1ccccc1)c1nc2ccccc2[nH]1 | inconclusive [inhibitor, single point] | –
